# Laboratory results as given in PMC4336329 (PLoS ONE, 2015).
# Among all 310,000 compounds or so, about 14,000 (4.5%) showed an effect of 50% or more. The effect is printed as a negative number. The list shows a part of the results.
# Biological target: human ether-à-go-go-related gene (hERG) potassium channel (human, UniProt Q12809)
# Experiment: primary screen, population patch clamp on CHO cells stably expressing hERG
# 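Also: peak tail current of the secondary pulse compared with the same well before compound.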
# Chain of human ether-à-go-go-related gene (hERG) potassium channel (Q12809 whole entry, looked up): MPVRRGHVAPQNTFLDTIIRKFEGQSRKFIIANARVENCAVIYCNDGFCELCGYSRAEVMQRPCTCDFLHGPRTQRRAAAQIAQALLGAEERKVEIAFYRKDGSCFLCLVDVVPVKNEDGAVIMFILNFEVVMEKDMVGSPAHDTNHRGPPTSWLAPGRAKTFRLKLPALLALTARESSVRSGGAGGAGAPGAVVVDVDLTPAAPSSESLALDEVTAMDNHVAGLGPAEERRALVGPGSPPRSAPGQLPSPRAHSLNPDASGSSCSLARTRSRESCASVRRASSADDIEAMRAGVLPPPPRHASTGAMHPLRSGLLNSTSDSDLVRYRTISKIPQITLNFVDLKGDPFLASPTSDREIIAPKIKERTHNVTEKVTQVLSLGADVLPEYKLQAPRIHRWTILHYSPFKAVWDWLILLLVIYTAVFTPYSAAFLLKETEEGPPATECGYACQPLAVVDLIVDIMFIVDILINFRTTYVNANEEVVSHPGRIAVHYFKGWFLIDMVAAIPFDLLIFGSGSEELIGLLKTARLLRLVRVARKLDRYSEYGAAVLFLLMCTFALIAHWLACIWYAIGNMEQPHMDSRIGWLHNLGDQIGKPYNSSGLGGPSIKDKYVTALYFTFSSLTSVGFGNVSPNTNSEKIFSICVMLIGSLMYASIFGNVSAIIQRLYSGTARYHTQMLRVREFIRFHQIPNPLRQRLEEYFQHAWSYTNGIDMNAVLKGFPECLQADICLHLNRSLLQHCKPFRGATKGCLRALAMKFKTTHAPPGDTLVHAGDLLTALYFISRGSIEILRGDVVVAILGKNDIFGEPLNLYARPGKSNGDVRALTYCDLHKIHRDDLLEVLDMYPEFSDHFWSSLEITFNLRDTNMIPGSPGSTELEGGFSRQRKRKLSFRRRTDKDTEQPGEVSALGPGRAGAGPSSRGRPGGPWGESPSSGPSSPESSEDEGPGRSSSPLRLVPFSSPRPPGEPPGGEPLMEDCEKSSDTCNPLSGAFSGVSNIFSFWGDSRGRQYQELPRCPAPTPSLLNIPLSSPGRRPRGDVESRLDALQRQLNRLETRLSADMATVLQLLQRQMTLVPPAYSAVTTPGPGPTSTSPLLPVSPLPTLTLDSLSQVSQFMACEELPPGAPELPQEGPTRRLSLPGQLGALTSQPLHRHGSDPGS
row,Structure (SMILES),"hERG current change (%, negative = inhibition) at 10uM [%]"
1,O=C(Nc1ccc2c(c1)OCCO2)c1ccoc1,7.01
2,CN1CCN(/C=C(\C#N)S(=O)(=O)c2ccc(Cl)cc2)CC1,-0.995
3,O=C(CCl)Nc1cccn2ncnc12,20.2
4,COC(=O)Cn1nc(-c2ccccc2)c2ccccc2c1=O,5.88
5,Cc1c(Nc2ccc(C=O)cc2)c(=O)n(-c2ccccc2)n1C,-2.75
6,CC(=O)c1ccc(NC(=O)N2C3CCC2CC(O)(c2cccnc2)C3)cc1 (stereo not drawn),2.75
7,COc1cc(CN2CCNC(=O)C2CC(=O)NCc2csc(C(C)C)n2)cc(OC)c1 (stereo not drawn),6.27
8,Cc1ccc(OC(=O)c2cc(=O)c3ccccc3o2)cc1,11.7
9,Nc1ccn(CC(=O)NCCc2ccccn2)c(=O)n1,15
10,COc1ccc(OC)c(C(=O)NC(CC(N)=O)c2ccc(NCc3ccccn3)c([N+](=O)[O-])c2)c1 (stereo not drawn),-13
11,Cn1c(N2C(=O)CC(Cc3ccccc3)C2=O)nc2ccccc21 (stereo not drawn),-17.6
12,CN(C(=O)CSc1nnc(CN2CCCC2)n1Cc1ccccc1)c1ccccc1,-17.1
13,CNC(=O)c1ccc(NC(=O)CC2SC(N3CCCC3)=NC2=O)cc1 (stereo not drawn),-4.89
14,Cc1ccc(C)c(NC(=O)CCC(=O)NNC(=S)Nc2ccccc2)c1,13.9
15,COc1ccccc1NC(=O)CCn1c(=S)oc2ccccc21,14.3
16,O=C(O)c1ccccc1-c1nc2ccccc2c(=O)n1O,14.9
17,COc1ccc(/C=N/NC(=O)c2cc3c(ccc4ccccc43)o2)cc1OC,2.27
18,COCCCNS(=O)(=O)c1ccc(S(=O)(=O)N2CCCC2)cc1,-1.15
19,CC(=O)Nc1ccccc1C(=O)C(=O)Nc1ccc(F)c(Cl)c1,15.6
20,COc1ccc(CNS(=O)(=O)CCNC(=O)c2ccc3c(c2)OCO3)cc1,-25.8
21,Cc1sc2ncnc(SCc3ccc(C(=O)O)cc3)c2c1C,4.78
22,CC(c1ccccc1)N1C(=O)c2ccc(C(=O)NCc3cccnc3)cc2C1=O (stereo not drawn),-18.4
23,[Cl-].c1ccc(CNc2cccc[nH+]2)cc1,16.6

row,Structure (SMILES),"hERG current change (%, negative = inhibition) at 10uM [%]"
1,CCCCOc1ccc(S(=O)(=O)NCc2csc(C)n2)cc1,-9.63
2,Cc1ccc(NC(=O)c2oc3ccccc3c2C)nc1,16
3,COCCCNC(=O)c1c(N)n(-c2ccccc2)c2nc3ccccc3nc12,1.67
4,COc1ccccc1N(C)S(=O)(=O)c1ccc(C(=O)N(CC(N)=O)C(C)C)cc1,7.27
5,COCCNC(=S)Nc1ccc(Cl)c(Cl)c1,-0.16
6,Cn1nnnc1SCC(=O)Nc1nc(-c2ccc(F)c(F)c2)cs1,-19.3
7,Cc1nc(Nc2ccc(C(=O)O)cc2)sc1-c1ccccc1,-76.5
8,FC(F)Sc1ccc(-n2cc(-c3ccccc3)[n+]3c2CCC3)cc1.[Br-],-77.9
9,Cn1cc(Br)c(NC(=O)/C=C/C(=O)O)n1,-18.1
10,CCOC(=O)c1c(-c2ccccc2)nc2cc(C)ccn12,-10.5
11,COc1ccc(N2CCN(c3nc(Nc4ccc(C)c(F)c4)nc(N4CCCC4)n3)CC2)cc1,8.35
12,COc1ccc(-c2cc(C(=O)NCc3cn(C)nc3C)c3ccccc3n2)cc1OC,2.61
13,Cc1ccc(/C=C/C(=O)O)cc1S(=O)(=O)Nc1ccc2c(c1)OCO2,19.7
14,Clc1cccc2sc(N3CCOCC3)nc12,-0.66
15,CCOC(=O)CSC1=NC(=O)/C(=C\c2ccc(Cl)cc2)S1,13.5
16,Cc1ccccc1S(=O)c1ccccc1C(=O)O (stereo not drawn),6.01
17,Cc1ccc(-c2nnn(CC(=O)N(CC(=O)NC3CCCC3)c3cnc4ccccc4c3)n2)o1,-12.4
18,S=C(NCc1ccc2c(c1)OCO2)NC1CC1,15.9
19,CC(=O)CCC(=O)N1CCCC(CNC(=O)c2ccc(-c3ccccc3)cc2)C1 (stereo not drawn),-13.8
20,CC(Oc1ccc2c(-c3ccccc3)cc(=O)oc2c1)C(=O)NCCCN1CCOCC1 (stereo not drawn),-5.18
21,Cc1sc2nc(CSCC(=O)Nc3c(Cl)cccc3Cl)[nH]c(=O)c2c1C,12.7
22,O=C(CCN1C(=O)C2CCCCC2C1=O)N1CCN(S(=O)(=O)c2c(F)cccc2F)CC1 (stereo not drawn),-18.6
23,C=CCn1c(SCC(=O)Nc2cc(C)nn2-c2ccccc2)nnc1C1CCCCC1,-14.1

row,Structure (SMILES),"hERG current change (%, negative = inhibition) at 10uM [%]"
1,COC(=O)c1c(NC(=O)CN2C(=O)C(=O)N(CC(C)C)C2=O)sc(C)c1C,7.58
2,Cc1cc2ccccc2nc1SCC(=O)Nc1nc(-c2ccccc2)cs1,1.67
3,CC(=O)c1ccc(Nc2cc(C)nc3ccccc23)cc1,-31.3
4,CCOC(=O)N1CCN(C(=O)CSc2nnc(Cn3c(=O)sc4ccccc43)n2C)CC1,7.8
5,Fc1c(F)c(C(F)(F)F)c(F)c(F)c1N1CCN(c2ccc3nnc(C(F)(F)F)n3n2)CC1,1.77
6,CCCCc1cc(=O)oc2c(C)c(OCC(=O)N3C[C@H]4C[C@@H](C3)c3cccc(=O)n3C4)ccc12,-60
7,CCOC(=O)c1c(C)nc(C)c(C(=O)OCC)c1-c1ccco1,3.58
8,COc1ccc(NC(=O)NNC(=O)C(C)Oc2ccc(C(C)C)cc2)c(OC)c1 (stereo not drawn),-1.84
9,Cc1ccc(NC(=O)CC2S/C(=N/N=C/c3ccco3)NC2=O)cc1Cl (stereo not drawn),3.04
10,Cc1[nH]c(C)c(S(=O)(=O)N(C)Cc2ccccc2)c1C(=O)N1CCCCC1,-25.5
11,CC(C)(C)c1cc[n+](/C(C(=S)Nc2ccccc2F)=C(/[O-])c2ccc3c(c2)OCCO3)cc1,-20.7
12,CCNC(=S)N1CCc2cc(OC)c(OC)cc2C1COc1ccc(OC)cc1 (stereo not drawn),-1.69
13,Cc1cc(C)nc(Sc2ncnc3c2oc2ccccc23)n1,-1.28
14,COc1ccc(C2C(C(=O)O)c3ccccc3C(=O)N2C)cc1Br (stereo not drawn),-10.5
15,CNc1nc(N(C)C)nc(N(C)C)n1,-7.71
16,CC1CCC(NC(=O)c2cc(C3CC3)nn2-c2ccccc2)CC1 (stereo not drawn),-34.9
17,CCOc1ccc(/C(O)=C2/C(=O)C(=O)N(c3cc(C)on3)C2c2ccc(C(=O)OC)cc2)cc1 (stereo not drawn),11.3
18,C=CCNC(=O)c1ccc(OC2CCN(S(=O)(=O)N(C)C)CC2)cc1,0.986
19,COc1ccc(/C=C/C(=O)c2ccc(Cl)cc2)c(OC)c1,7.13
20,CC(=O)c1ccc(Oc2cc(-c3ccccc3)nc(-c3ccccc3)n2)cc1,10.6
21,CCN1CCSc2ccc(C(=O)Nc3ccc(NC(C)=O)cc3)cc21,1.22
22,O=C1CS/C(=N/N=C/c2ccncc2)N1,11.5
23,Cc1c(NC(=O)CN2CCN(c3ccccc3)CC2)c(=O)n(-c2ccccc2)n1C,9.86

row,Structure (SMILES),"hERG current change (%, negative = inhibition) at 10uM [%]"
1,O=C(O)C1CCN(C(=O)c2scc3c2OCCO3)CC1,3.83
2,Cc1ccccc1OCCC(=O)OCC(=O)NNC(=O)c1cccs1,-0.575
3,Cc1ncc(CN2CCN(Cc3ccccc3)C(CCO)C2)s1 (stereo not drawn),1.08
4,CCOc1cc(CNCC(C)C)c(Cl)cc1OCC(=O)Nc1ccccc1,-15.2
5,COC(=O)c1ccccc1NC(=O)N1CCCC1,-11.9
6,COc1ccccc1Oc1nc(-c2cccnc2)nc2ccccc12,14.8
7,Cc1nn(-c2ccccc2)c2sc(C(=O)O)cc12,1.3
8,COc1ccc(CCNc2ncnc3c2nnn3Cc2ccccc2)cc1,13
9,COc1ccc(Cn2c(C)ccc2C)cc1,3.95
10,O=C(Nc1ccc(NC(=O)c2cccs2)cc1)c1cccs1,-4.17
11,CCn1cc(C(=O)OCC(=O)N2C(C)CCCC2C)c(=O)c2ccc(C)nc21 (stereo not drawn),11
12,CCOc1ccc(NC(=O)CN(C)C(=O)c2cc(S(=O)(=O)N3CCCCC3)ccc2C)cc1OCC,-16.3
13,COc1ccc(S(=O)(=O)N2c3ccccc3OCC2C)cc1 (stereo not drawn),-2.26
14,Cc1cc(NC(=O)CSc2nc3ccccc3[nH]2)no1,8.42
15,Cc1ccccc1NC(=O)c1cc2ccccn2n1,-6.58
16,CCCCCC(=O)Nc1ccc2oc(-c3cncc(Br)c3)nc2c1,17.6
17,CCOc1cc(/C=C2\C(=N)N3N=C(N4CCCCC4)SC3=NC2=O)ccc1OC(=O)c1ccco1,18.6
18,COc1cccc(CN2CCNC(=O)C2CC(=O)NCCOc2cccnc2)c1OC (stereo not drawn),14.3
19,Cn1cc(Br)c(C(=O)NNC(=O)Nc2ccccc2C(F)(F)F)n1,19.7
20,CC1(C)Cc2cccc(OCC(=O)NCc3ccccc3)c2O1,0.186
21,NC(=O)c1ccccc1Nc1nc2nc3ccccc3c(=O)n2cc1Br,9.58
